# Source: PMC4242493
# Some of the results follow. The list includes weakly bound sequences.
# Target: MaxL homodimer (UniProt P61244)
# Experiment: universal protein-binding microarray (PBM)
# Details: PBS-based mixture, 10 nM His-tagged protein dimer, 2% milk, 200 ng/uL BSA, 50 ng/uL salmon testes DNA, 0.02% TX-100; detection with Alexa 488 anti-His …; high values mean tight binding; most listed sequences are background and not binding sites; double strand, one strand shown
# Chain of UniProt P61244 (P61244 whole entry): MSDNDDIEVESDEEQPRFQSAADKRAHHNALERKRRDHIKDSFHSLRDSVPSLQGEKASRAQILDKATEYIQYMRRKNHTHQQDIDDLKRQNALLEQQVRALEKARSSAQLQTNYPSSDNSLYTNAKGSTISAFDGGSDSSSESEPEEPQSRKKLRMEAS
row,Sequence,binding signal (normalized occupancy)
1,AGTCCCAT,0.08
2,CGAAGAGA,0.071
3,AAGTACCA,0.08
4,AATCAGTA,0.0786
5,GAACTCTA,0.0729
6,AGGCCTAC,0.0722
7,ACTTTGAG,0.0717
8,ACTGCCTC,0.075
9,TAAAAGAA,0.0707
10,AACTAACT,0.0696
11,GAGTGACA,0.0792
12,GAACCAAC,0.0752
13,GGTGACTA,0.0779
14,CCAAGCCC,0.0739
15,CGAATCAA,0.0766
16,CCACAGAG,0.0712
17,GATTCAGC,0.0711
18,ATGTGTAA,0.0874
19,GGCAGTGA,0.0745
20,CGCGTTAA,0.0766
21,CTAGGGTA,0.0774
22,CGGATTAG,0.0726

row,Sequence,binding signal (normalized occupancy)
1,CTGGAATA,0.0747
2,ACGTACGG,0.0786
3,ATCACCCC,0.0843
4,GGCTAACA,0.0749
5,CCCTCTCG,0.07
6,AACCTCGA,0.0736
7,CTGGTAAG,0.0719
8,AGCATTCA,0.0761
9,CCGAGCGC,0.0635
10,TGCTCACA,0.0845
11,AACGCCCT,0.0713
12,CCGTTTAC,0.0717
13,CGAGGTAA,0.0755
14,AATCCTGT,0.0769
15,ACAACTGC,0.0673
16,TAGGTTCA,0.0728
17,ACCATGCT,0.123
18,CAATTTCG,0.0732
19,ATGCAAGA,0.0753
20,CCGTAGAC,0.0698
21,GCTACGCC,0.0731
22,GGTCTGTA,0.0752

row,Sequence,binding signal (normalized occupancy)
1,GTAGGTCA,0.0728
2,CCACAGGG,0.0708
3,GCCCATAA,0.0767
4,CAATGCGG,0.0873
5,ACTAATGA,0.0785
6,AGAGTTAC,0.076
7,CCTCGGTA,0.067
8,TCCGACCA,0.0753
9,ATAGGGAG,0.0783
10,CTTCAACC,0.0737
11,ACGCTTTA,0.0766
12,CTCCTCGC,0.0739
13,ACTGAAAC,0.0742
14,CCAAGGCA,0.0725
15,TACTGCCA,0.0744
16,CATCTACC,0.0776
17,AACCTCTC,0.0764
18,CCCAGACG,0.0707
19,ATGTAGTC,0.0848
20,GATAGGGA,0.0753
21,AGTGACGG,0.0686
22,GCGGGGCA,0.0727

row,Sequence,binding signal (normalized occupancy)
1,GCACCTCA,0.078
2,AGCGAGCT,0.0711
3,AAGGTTCC,0.0697
4,CTTAGCAA,0.0727
5,ATACAGAG,0.0772
6,TATCGAAA,0.0728
7,GAATCATA,0.0847
8,ATGCACCC,0.0839
9,ACTACAGA,0.0771
10,CCATGTAG,0.0836
11,AAATATCG,0.0743
12,ATCAGGCA,0.0754
13,GAATCGAA,0.0761
14,CTGTGACC,0.0734
15,AGACTTTG,0.0675
16,CACAGCAA,0.0762
17,CGTGGGTC,0.085
18,ACAGATCC,0.0755
19,AGGACCAT,0.0823
20,CTATAACA,0.0846
21,ACGCAGCT,0.0702
22,CGGGTAGC,0.071

row,Sequence,binding signal (normalized occupancy)
1,GGCAGAAC,0.0729
2,CAAGCCGC,0.0704
3,CTGCCTCA,0.0739
4,CGCGATAC,0.0814
5,ATGCATTA,0.0869
6,AAGGGTAT,0.0811
7,AGCACTCA,0.0784
8,TCATGACA,0.0841
9,GGCGAAAA,0.0711
10,GATAGTAA,0.0764
11,GATCATAA,0.0852
12,AATATTGA,0.0777
13,CCCGATGC,0.0722
14,GCAACCCC,0.0708
15,AACGTCCT,0.0751
16,ACCGCACA,0.084
17,AAACTGAG,0.0651
18,ACTGTTCA,0.073
19,ATGCGGTG,0.0807
20,ATGACTTC,0.0712
21,CCGAAACC,0.078
